Legend:
[1] = target: T1, Rpb2 (Pol II subunit) (yeast, UniProt P08518 1-1224); test: cross-linking; Pol II-Paf1C-TFIIS EC after SEC, 425 μg/ml, 0.5 mM BS3, 30 min, 30 °C; trypsin, Orbitrap Fusion LC-MS/MS, pLink, FDR 1%; conditions: both partners purified
T1 construct: Rpb2, subunit of yeast Pol II; source: part of purified Pol II

[2] = target: T2, Ctr9-ΔC913 (S. cerevisiae, UniProt P89105 1-913); test: as above; conditions: both partners purified
T2 construct: Ctr9, S. cerevisiae, variant lacking 164 amino acids at its C terminus (Ctr9-ΔC913); also called Ctr9 (in the Pol II-Paf1C-TFIIS EC); source: E. coli BL21 CodonPlus(DE3)RIL, coexpressed with the other subunits; in lysate and purified as part of Paf1C-Ctr9-ΔC913
T2 sequence (looked up): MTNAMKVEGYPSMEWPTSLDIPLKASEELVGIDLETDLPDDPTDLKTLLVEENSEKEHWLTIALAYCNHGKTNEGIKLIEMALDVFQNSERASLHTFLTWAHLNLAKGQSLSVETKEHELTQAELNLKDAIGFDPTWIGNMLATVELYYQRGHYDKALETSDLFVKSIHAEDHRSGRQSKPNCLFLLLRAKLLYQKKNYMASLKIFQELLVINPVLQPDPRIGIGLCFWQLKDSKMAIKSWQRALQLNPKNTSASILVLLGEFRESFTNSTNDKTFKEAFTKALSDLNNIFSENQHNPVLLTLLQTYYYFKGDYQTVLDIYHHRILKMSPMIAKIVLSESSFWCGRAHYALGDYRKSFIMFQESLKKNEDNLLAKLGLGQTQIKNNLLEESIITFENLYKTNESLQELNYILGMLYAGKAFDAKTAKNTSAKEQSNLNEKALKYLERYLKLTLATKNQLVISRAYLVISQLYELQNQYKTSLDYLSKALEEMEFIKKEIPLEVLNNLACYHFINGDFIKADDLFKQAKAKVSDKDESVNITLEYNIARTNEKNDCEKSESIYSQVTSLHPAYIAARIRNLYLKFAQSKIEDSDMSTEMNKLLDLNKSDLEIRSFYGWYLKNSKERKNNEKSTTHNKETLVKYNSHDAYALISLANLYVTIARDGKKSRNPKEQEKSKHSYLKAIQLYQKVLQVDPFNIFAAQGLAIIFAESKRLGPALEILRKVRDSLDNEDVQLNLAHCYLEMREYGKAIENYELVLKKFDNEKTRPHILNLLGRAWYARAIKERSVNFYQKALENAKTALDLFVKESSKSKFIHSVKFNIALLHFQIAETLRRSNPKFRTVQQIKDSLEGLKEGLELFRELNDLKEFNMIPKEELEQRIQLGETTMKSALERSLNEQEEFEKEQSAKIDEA

[3] = target: T3, Ctr9 (full length, C-terminal hexahistidine tag) (S. cerevisiae, UniProt P89105 1-1077); test: co-purification after coexpression (Ni-NTA, cation exchange, SEC); subunits coexpressed in E. coli from three vectors, cells colysed; Ni-NTA (hexahistidine tag on Ctr9), HiTrap SP cation exchange, Superose 6 size exclusion; SDS-PAGE, subunits confirmed by mass spectrometry; conditions: partners not purified
T3 construct: Ctr9, S. cerevisiae, full length, amplified from genomic DNA, in pET24b; source: E. coli BL21 CodonPlus(DE3)RIL, coexpressed with the other subunits; in lysate and purified as part of Paf1C; not shown: His6, C-terminal, kept
T3 sequence (looked up): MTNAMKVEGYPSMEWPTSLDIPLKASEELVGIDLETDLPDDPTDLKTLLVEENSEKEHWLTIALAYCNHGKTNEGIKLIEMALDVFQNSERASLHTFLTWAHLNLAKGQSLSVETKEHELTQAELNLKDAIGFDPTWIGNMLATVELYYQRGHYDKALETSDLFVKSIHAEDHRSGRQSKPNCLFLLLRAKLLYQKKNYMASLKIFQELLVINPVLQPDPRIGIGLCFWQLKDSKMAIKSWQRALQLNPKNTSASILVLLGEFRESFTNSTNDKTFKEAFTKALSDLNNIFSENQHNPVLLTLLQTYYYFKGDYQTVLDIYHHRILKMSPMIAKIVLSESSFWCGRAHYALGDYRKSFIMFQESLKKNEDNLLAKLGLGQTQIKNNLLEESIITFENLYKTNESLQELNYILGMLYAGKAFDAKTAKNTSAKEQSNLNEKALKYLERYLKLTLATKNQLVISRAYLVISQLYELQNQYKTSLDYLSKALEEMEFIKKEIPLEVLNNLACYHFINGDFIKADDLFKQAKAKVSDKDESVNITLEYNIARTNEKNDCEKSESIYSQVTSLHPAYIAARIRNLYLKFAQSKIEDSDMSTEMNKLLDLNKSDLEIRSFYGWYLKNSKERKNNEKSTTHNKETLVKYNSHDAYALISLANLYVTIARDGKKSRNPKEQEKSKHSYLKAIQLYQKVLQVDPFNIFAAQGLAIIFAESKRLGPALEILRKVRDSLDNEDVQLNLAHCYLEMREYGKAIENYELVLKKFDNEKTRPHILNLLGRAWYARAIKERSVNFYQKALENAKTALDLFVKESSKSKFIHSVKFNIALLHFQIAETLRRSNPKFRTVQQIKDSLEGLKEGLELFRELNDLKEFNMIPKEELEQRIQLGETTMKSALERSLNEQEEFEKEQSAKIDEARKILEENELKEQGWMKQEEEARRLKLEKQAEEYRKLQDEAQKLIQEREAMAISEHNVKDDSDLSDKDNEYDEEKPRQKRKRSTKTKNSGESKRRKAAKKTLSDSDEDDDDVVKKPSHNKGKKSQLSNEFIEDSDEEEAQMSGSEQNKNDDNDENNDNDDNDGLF

Measured: binding result

T1 sequence (P08518 whole entry, the tested form may be a part): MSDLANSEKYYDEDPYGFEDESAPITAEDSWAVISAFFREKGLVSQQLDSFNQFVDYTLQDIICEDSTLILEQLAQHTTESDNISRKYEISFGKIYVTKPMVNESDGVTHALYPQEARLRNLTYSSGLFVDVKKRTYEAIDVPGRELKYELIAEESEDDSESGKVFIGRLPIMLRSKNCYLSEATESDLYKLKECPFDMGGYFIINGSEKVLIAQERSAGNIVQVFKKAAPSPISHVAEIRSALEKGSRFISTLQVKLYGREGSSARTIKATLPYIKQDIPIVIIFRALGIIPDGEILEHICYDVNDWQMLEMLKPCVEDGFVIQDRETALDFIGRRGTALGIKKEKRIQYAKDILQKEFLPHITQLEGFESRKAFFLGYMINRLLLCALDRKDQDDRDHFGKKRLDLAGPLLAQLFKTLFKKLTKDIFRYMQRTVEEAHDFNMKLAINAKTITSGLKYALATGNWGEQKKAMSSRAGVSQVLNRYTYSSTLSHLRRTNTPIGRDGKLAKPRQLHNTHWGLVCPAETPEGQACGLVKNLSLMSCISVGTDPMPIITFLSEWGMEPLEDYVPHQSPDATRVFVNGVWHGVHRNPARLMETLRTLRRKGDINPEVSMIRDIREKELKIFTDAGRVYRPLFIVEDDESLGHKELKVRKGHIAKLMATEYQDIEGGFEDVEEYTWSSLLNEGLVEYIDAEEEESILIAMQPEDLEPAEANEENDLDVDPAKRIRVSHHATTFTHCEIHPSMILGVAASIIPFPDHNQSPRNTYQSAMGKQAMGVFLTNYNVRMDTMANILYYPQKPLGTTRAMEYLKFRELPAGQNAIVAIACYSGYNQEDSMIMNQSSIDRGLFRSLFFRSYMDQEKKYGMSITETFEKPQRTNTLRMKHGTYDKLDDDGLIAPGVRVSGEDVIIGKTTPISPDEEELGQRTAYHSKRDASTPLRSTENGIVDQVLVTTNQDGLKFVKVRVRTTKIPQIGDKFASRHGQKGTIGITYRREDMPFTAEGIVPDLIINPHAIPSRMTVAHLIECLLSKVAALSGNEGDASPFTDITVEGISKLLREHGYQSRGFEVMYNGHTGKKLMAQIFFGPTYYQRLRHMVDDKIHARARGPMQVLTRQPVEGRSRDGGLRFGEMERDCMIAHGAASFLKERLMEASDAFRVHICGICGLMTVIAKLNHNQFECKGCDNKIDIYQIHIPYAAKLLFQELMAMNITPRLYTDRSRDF

B1: Rtf1 (natural protein)
chain: not shown
notes: Rtf1, S. cerevisiae, full length, amplified from genomic DNA; source: E. coli BL21 CodonPlus(DE3)RIL, coexpressed with Cdc73; in lysate and purified as part of Paf1C
binds: [1] | [2] | [3]
